In patent US20240400659A1 (BIOATLA, published 2024):

Key:
[1] = biological target: T1, low-density lipoprotein receptor (UniProt P01130 22-788, limits assumed); experiment: pH affinity ELISA, coated target, PBS + 30 mM sodium bicarbonate
T1 construct: also called LDLR

[2] = biological target: T2, Sortilin (UniProt Q99523 78-755, limits assumed); experiment: as above
T2 sequence (looked up): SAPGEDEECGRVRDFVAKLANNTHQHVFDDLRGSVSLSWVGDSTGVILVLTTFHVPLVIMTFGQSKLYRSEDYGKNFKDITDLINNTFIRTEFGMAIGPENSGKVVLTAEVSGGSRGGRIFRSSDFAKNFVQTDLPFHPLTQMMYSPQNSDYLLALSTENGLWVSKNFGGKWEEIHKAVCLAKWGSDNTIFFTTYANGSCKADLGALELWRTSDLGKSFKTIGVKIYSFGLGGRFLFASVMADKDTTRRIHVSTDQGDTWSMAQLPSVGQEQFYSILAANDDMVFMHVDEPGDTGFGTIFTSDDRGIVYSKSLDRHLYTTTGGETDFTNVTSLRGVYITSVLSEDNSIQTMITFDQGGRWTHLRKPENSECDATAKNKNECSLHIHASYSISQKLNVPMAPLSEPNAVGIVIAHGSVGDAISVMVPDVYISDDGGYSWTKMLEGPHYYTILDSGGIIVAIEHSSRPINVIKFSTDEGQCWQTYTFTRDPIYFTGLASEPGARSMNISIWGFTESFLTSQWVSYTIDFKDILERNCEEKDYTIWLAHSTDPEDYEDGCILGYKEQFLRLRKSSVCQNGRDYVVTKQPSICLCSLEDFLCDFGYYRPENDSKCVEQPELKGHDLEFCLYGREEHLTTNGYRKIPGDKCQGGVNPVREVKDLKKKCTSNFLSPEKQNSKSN

[3] = biological target: T3, very low-density lipoprotein receptor (UniProt P98155 28-797, limits assumed); experiment: as above
T3 construct: also called VLDLR; VLDR

[4] = biological target: T1, low-density lipoprotein receptor; experiment: pH affinity ELISA, coated target, pH 6.0, PBS + 30 mM sodium bicarbonate
[5] = biological target: T2, Sortilin; experiment: as above
[6] = biological target: T3, very low-density lipoprotein receptor; experiment: as above
[7] = biological target: T1, low-density lipoprotein receptor; experiment: pH affinity ELISA, coated target, pH 6.0, PBS
[8] = biological target: T2, Sortilin; experiment: pH affinity ELISA, coated target, pH 6.0, PBS
[9] = biological target: T3, very low-density lipoprotein receptor; experiment: pH affinity ELISA, coated target, pH 6.0, PBS
[10] = biological target: T1, low-density lipoprotein receptor; experiment: pH affinity ELISA, coated target, pH 7.4, PBS + 30 mM sodium bicarbonate
[11] = biological target: T2, Sortilin; experiment: as above
[12] = biological target: T3, very low-density lipoprotein receptor; experiment: as above
[13] = biological target: T1, low-density lipoprotein receptor; experiment: pH affinity ELISA, coated target, pH 7.4, PBS
[14] = biological target: T2, Sortilin; experiment: pH affinity ELISA, coated target, pH 7.4, PBS
[15] = biological target: T3, very low-density lipoprotein receptor; experiment: pH affinity ELISA, coated target, pH 7.4, PBS
[16] = biological target: T1, low-density lipoprotein receptor; experiment: pH affinity ELISA, coated target, PBS
[17] = biological target: T2, Sortilin; experiment: pH affinity ELISA, coated target, PBS
[18] = biological target: T3, very low-density lipoprotein receptor; experiment: pH affinity ELISA, coated target, PBS

T1 sequence (P01130 22-788 limits assumed): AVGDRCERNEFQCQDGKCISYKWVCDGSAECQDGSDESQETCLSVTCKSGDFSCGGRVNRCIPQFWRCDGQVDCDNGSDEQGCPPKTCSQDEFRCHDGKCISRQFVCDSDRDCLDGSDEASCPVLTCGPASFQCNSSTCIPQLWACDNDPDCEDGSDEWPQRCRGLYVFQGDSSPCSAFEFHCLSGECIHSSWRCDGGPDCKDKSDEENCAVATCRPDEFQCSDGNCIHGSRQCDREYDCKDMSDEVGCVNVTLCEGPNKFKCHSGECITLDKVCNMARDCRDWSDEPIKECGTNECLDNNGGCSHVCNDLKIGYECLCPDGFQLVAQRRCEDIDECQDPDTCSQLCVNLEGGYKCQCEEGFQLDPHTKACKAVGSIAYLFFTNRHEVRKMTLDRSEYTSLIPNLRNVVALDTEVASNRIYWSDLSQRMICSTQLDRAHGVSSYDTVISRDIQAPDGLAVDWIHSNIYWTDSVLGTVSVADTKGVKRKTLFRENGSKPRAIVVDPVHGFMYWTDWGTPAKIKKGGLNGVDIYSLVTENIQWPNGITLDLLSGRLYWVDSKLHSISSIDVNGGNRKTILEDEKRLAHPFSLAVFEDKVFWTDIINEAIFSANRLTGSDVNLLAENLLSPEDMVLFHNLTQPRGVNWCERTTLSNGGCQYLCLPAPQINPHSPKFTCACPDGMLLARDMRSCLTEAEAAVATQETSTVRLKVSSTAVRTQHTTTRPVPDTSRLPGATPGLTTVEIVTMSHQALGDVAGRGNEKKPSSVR

Fold change - PBS + sodium bicarb (EC50 pH 7.4 divided by EC50 pH 6.0) [1]: 4.32 fold
Fold change - PBS + sodium bicarb (EC50 pH 7.4 divided by EC50 pH 6.0) [2]: 5.45 fold
Fold change - PBS + sodium bicarb (EC50 pH 7.4 divided by EC50 pH 6.0) [3]: 6.48 fold
EC50 [4]: 1.52 mg/L
EC50 [5]: 1.36 mg/L
EC50 [6]: 0.48 mg/L
EC50 [7]: 0.6 mg/L
EC50 [8]: 0.38 mg/L
EC50 [9]: 0.41 mg/L
EC50 [10]: 6.56 mg/L
EC50 [11]: 7.38 mg/L
EC50 [12]: 3.1 mg/L
EC50 [13]: 3.05 mg/L
EC50 [14]: 2.1 mg/L
EC50 [15]: 1.08 mg/L
Fold change - PBS (EC50 pH 7.4 divided by EC50 pH 6.0) [16]: 5.11 fold
Fold change - PBS (EC50 pH 7.4 divided by EC50 pH 6.0) [17]: 5.55 fold
Fold change - PBS (EC50 pH 7.4 divided by EC50 pH 6.0) [18]: 2.65 fold
B1: Apolipoprotein E4 (ligand)
chain: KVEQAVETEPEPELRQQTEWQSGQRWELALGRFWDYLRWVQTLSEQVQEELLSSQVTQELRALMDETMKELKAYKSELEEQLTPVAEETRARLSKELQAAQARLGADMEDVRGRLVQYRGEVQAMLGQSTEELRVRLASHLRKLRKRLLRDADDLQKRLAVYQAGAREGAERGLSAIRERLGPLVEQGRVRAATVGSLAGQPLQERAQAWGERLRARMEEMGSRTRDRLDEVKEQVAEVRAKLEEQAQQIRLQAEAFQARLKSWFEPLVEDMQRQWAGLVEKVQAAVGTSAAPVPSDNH
notes: also called ApoE4; hApoE4
